# Results published in PubChem BioAssay AID720542 (National Center for Advancing Translational Sciences (NCATS), 2013).
# Hit rate of the full screen: of about 360,000 compounds, about 740 (0.21%) were called active. The inconclusive results got no clear call from the source; some entries with a clear call stand among them for comparison. Calls come from the whole dose curve; as a rule, active = well fitted inhibition curve with a large enough effect; inconclusive = small, poorly fitted or top-dose-only effect; inactive = no such curve, though single readings can be large or run the other way. Potencies of inconclusive entries are left out as doubtful fits.
# Tested on: Plasmodium falciparum AMA1 (3D7) - RON2 peptide interaction
# Assay: qHTS for Inhibitors of AMA1-RON; Towards Development of Antimalarial Drug Lead: Primary Screen; note: nearly all actives have a fitted effect of over 45% in size;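 for activity change, negative = inhibition: 0% = vehicle wells and -100% = peptide control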
# Conditions: AlphaScreen AMA1-biotinylated RON2 peptide binding; activity change, negative = inhibition: at 58.2 µM (top of the series) unless noted
# How it was run: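 AMA1 (3D7) with his tag at 25 nM final met compounds first, then biotinylated RON2 peptide at 25 nM; detection used donor plus acceptor beads, 10 µg/mL apiece, read by AlphaScreen after 30 min at room temperature.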
# Potency is the fitted concentration of half-maximal effect; tags give direction and shape of the fitted curve.
SMILES,Potency,"activity change, negative = inhibition"
COC(=O)CCCC1=CC2=C(c3ccccc3)C(=O)C(C)(OC(=O)C3CCCC3)C(=O)C2=CN1Cc1ccco1 (centres undefined),inactive,–
Cc1ccccc1OCC(=O)N1CCN(C(=O)COc2ccccc2C)CC1,"inconclusive [inhibitor, single point]",–
CCOc1ccc(NC(=S)N(Cc2ccc(N(C)C)cc2)Cc2ccco2)cc1,"inconclusive [inhibitor, single point]",–
CC1N(C)c2cc(NC(=O)c3ccco3)ccc2C1(C)C (centres undefined),"inconclusive [inhibitor, single point]",–
CNC(=S)Nc1ccc(C23CC4CC(CC(C4)C2)C3)cc1,"inconclusive [inhibitor, partial curve]",–
O=C(COc1ccc(CO)cc1Cl)Nc1ccc(F)cc1,inactive,–
CCN(CC)c1ccc(C(=O)n2cnc3ccccc32)cc1,inactive,–
CN(C)c1ccc(/C=N/n2c(-c3cccnc3)n[nH]c2=S)cc1,"inconclusive [inhibitor, single point]",–
COC(=O)Cn1c(=NC(=O)c2ccc(OC)c(OC)c2)sc2cc(OC)ccc21,–,inconclusive: -14.5% [inhibitor]
CC(C)CN(C(=O)CN(C)S(=O)(=O)c1ccc(Cl)cc1)C1CCS(=O)(=O)C1 (centres undefined),inactive,–
Cc1cc(F)ccc1C(O)c1ncc(-c2ccccc2)[nH]1 (centres undefined),"inconclusive [inhibitor, partial curve]",–
CCOC(=O)N1CCN(C(=O)Nc2ccc3oc(C)nc3c2)CC1,"inconclusive [inhibitor, single point]",–
COc1ccc(CCNc2oc(Cc3cccc4ccccc34)nc2C#N)cc1OC,"inconclusive [inhibitor, single point]",–
COc1cc2c(cc1OC)CN(C(=O)c1cccs1)CC2,inactive,–
Cc1ccc(S(=O)(=O)C=CS(=O)(=O)c2ccc(C)cc2)cc1,"inconclusive [inhibitor, single point]",–
COC(=O)c1cc(NC(=O)C2CC=CCC2C(=O)O)cc(C(=O)OC)c1 (centres undefined),"inconclusive [inhibitor, partial curve]",–
CCN1CCN(c2oc(COc3ccc(-c4ccccc4)cc3)nc2C#N)CC1,"inconclusive [inhibitor, partial curve]",–
Cc1ccc2c(C)c(C(=O)N3CCN(c4ncccn4)CC3)oc2c1C,"inconclusive [inhibitor, partial curve]",–
CCc1ccc2nc(N(CCN(C)C)C(=O)c3ccc4ncsc4c3)sc2c1,"inconclusive [inhibitor, single point]",–
CCN1CCN(C2=NC(=O)/C(=C/c3ccc(C)o3)S2)CC1,"inconclusive [inhibitor, partial curve]",–
Cc1ccc(O)c(-c2cc3ccccc3[nH]2)c1,"inconclusive [inhibitor, single point]",–
CC1=NN2C(=N)/C(=C\c3cc(C)n(-c4ccccc4)c3C)C(=O)N=C2S1,inactive,–
CCC(c1nnnn1-c1ccc2c(c1)OCCO2)N1CCN(c2ccc(F)cc2)CC1 (centres undefined),"inconclusive [inhibitor, partial curve]",–

SMILES,Potency,"activity change, negative = inhibition"
COc1cccc(NC(=O)N2CCN(C(=O)C(Cc3ccc(OC)c(OC)c3)NC(C)=O)CC2)c1 (centres undefined),inactive,–
COc1ccc(N2CCN(C(=O)c3cc(S(=O)(=O)N4CCCCCC4)ccc3OC)CC2)cc1,"inconclusive [inhibitor, partial curve, poor fit]",–
CC1CCN(C(=O)CCc2ccc(Oc3cc([N+](=O)[O-])cc([N+](=O)[O-])c3)cc2)CC1,"inconclusive [inhibitor, single point]",–
CC(C)C(C)(C#N)NC(=O)CSc1nc2scc(-c3ccc(F)cc3)c2c(=O)n1Cc1ccccc1 (centres undefined),inactive,–
Cc1ccc([N+](=O)[O-])cc1N(CC(=O)Nc1ccc(S(=O)(=O)Nc2cccc(C(F)(F)F)c2)cc1)S(C)(=O)=O,"inconclusive [inhibitor, partial curve]",–
O=C(NCCc1ccc(Cl)cc1)C1CCN(S(=O)(=O)c2ccc(-n3cnnn3)cc2)CC1,inactive,–
Cc1ccccc1Nc1nc(NCc2ccco2)c2ccccc2n1,"inconclusive [inhibitor, partial curve]",–
CN(C)S(=O)(=O)c1ccc(C(=O)OCCn2cnc3c2c(=O)n(C)c(=O)n3C)cc1,"inconclusive [inhibitor, partial curve, poor fit]",–
CN(C)c1ccc(/C=C/C(=O)c2ccccc2)cc1[N+](=O)[O-],"inconclusive [inhibitor, single point]",–
COC(=O)c1c(C)oc2c1cc(NS(=O)(=O)c1ccc(C(=O)O)cc1)c1ccccc12,inactive,–
CCNS(=O)(=O)c1ccc(NC(=O)Nc2ccc3c(c2)OCO3)cc1,inactive,–
CC(=O)c1ccc(NC(=O)CSc2nnc(-c3ccco3)c(-c3ccco3)n2)cc1,"inconclusive [inhibitor, single point]",–
CC1N(O)C2CCCCCC2N1O (centres undefined),"inconclusive [inhibitor, single point]",–
Cc1ccc(Nc2ncnc3sc(C)c(C)c23)cc1C,inactive,–
C/C(=N\NC(=O)c1c(Cl)cnn1C)c1ccc(NC(=O)c2ccncc2)cc1,inactive,–
Cc1nnc(SC(C)C#N)n1-c1ccccc1 (centres undefined),inactive,–
COc1cccc(OCc2nc(-c3cccc([N+](=O)[O-])c3)no2)c1,"inconclusive [inhibitor, partial curve]",–
CN(C)C(=O)c1ccc(Nc2nc(-c3cccs3)nc3ccccc23)cc1,inactive,–
O=C(NNC(=O)c1ccccc1C(F)(F)F)c1csc(N2CCOCC2)n1,inactive,–
O=C(Nc1nc(-c2ccccc2)cs1)c1ccc(N2CCOCC2)c([N+](=O)[O-])c1,"inconclusive [inhibitor, partial curve, poor fit]",–
Cc1ccccc1-n1cnc2c(sc3nc(N4CCOCC4)c4c(c32)CCCC4)c1=O,"inconclusive [inhibitor, partial curve]",–
CCC(C)Nc1ccc(NC(C)CC)cc1 (centres undefined),"inconclusive [inhibitor, partial curve]",–
CCC(c1nnnn1Cc1ccc(OC)cc1)N1CCN(c2ccc(OC)cc2)CC1 (centres undefined),"inconclusive [inhibitor, partial curve]",–

SMILES,Potency,"activity change, negative = inhibition"
CCN(CC)C(=O)[C@H]1C[C@H](CC(=O)NCc2ccco2)C(=O)N2CCc3c([nH]c4cc(-c5ccco5)ccc34)[C@]12C,"inconclusive [inhibitor, single point]",–
CCOC(=O)C1(CCc2ccccc2)CCN(Cc2ccc3c(c2)OCCO3)CC1,"inconclusive [inhibitor, single point]",–
CN1CC(C(=O)c2ccc(Cl)cc2)C(c2ccc(N(C)C)cc2)C1 (centres undefined),"inconclusive [inhibitor, single point]",–
COc1ccc(OC)c2c1sc(=NC(=O)C(C)(C)C)n2C,inactive,–
CC(=O)NC(C1C(=O)CC(C)(C)CC1=O)(C(F)(F)F)C(F)(F)F,"inconclusive [inhibitor, single point]",–
O=C(CCl)N(O)c1ccc(C=Cc2ccccc2)cc1,"inconclusive [inhibitor, partial curve]",–
O=C(CSCc1ccc(Cl)cc1)Nc1ccc(S(=O)(=O)N2CCOCC2)cc1,inactive,–
CCOC(=O)c1c(C)c(C(=O)N2CCN(c3ccccc3)CC2)c(C)n1C,"inconclusive [inhibitor, single point]",–
CCc1nc2sc3c(c2c(=O)n1NC(=O)CCl)CCCC3,inactive,–
Cc1cc(C)nc(SCc2ccc([N+](=O)[O-])cc2)n1,inactive,–
COc1ccc(CN2Cc3cc(-c4ccccc4)ccc3-n3nncc3C2)cc1,"inconclusive [inhibitor, single point]",–
CCN(CC)c1ccc(N=C2C(=O)Nc3ccccc32)cc1,"inconclusive [inhibitor, partial curve]",–
CN(C)CCCN(C(=O)c1cc(-c2cccs2)nc2ccccc12)c1nc2ccc(F)cc2s1,"inconclusive [inhibitor, single point]",–
O=C(CN1CCCC1)Nc1ccc(F)c(Cl)c1,inactive,–
CCCc1cc(=O)[nH]c2nnc(SCC(=O)Nc3ccc4c(c3)OCCO4)n12,inactive,–
CC(C)CNC(=S)NC(=O)c1ccc([N+](=O)[O-])cc1,"inconclusive [inhibitor, partial curve]",–
O=C(c1ccccc1)N1CCCCC(S(=O)(=O)c2ccccc2)C1=O (centres undefined),inactive,–
CCN(CCN(C)C)C(=O)c1ccc2c(c1NCCO)C(=O)c1ccccc1C2=O,"inconclusive [inhibitor, partial curve]",–
COc1ccc(C(O)c2nc(-c3ccc(N(C)C)cc3)cs2)cc1 (centres undefined),"inconclusive [inhibitor, single point]",–
COc1ccc2[nH]c3c4c(ccc3c2c1)C(=O)C=CC4=O,"inconclusive [inhibitor, partial curve]",–
Cc1ccc(/C(O)=C/C(=O)C(=O)NC23CC4CC(CC(C4)C2)C3)cc1,inactive,–
Fc1ccc(C(c2nnnn2Cc2cccs2)N2CCN(c3ccccc3)CC2)cc1 (centres undefined),"inconclusive [inhibitor, full curve]",–
Cc1ccc(CNC(=O)CSc2ccc(-c3ccccn3)nn2)cc1,"inconclusive [inhibitor, single point]",–
